Source: the supplement of paper PMC3334620
Over roughly 33,000 sequences, “E-score (-0.5 to 0.5)” has its median near -0.035; the highest 2% begin near 0.35. The list shows a part of the results.

target: T1, Pdr3 (UniProt P33200); test: PBM E-score (8-mer binding enrichment) (E-score (-0.5 to 0.5)); higher = stronger / more preferred TF binding; most listed sequences are background and not binding sites; conditions: protein concentration: 200 nM; construct: GST-full length
T1 sequence: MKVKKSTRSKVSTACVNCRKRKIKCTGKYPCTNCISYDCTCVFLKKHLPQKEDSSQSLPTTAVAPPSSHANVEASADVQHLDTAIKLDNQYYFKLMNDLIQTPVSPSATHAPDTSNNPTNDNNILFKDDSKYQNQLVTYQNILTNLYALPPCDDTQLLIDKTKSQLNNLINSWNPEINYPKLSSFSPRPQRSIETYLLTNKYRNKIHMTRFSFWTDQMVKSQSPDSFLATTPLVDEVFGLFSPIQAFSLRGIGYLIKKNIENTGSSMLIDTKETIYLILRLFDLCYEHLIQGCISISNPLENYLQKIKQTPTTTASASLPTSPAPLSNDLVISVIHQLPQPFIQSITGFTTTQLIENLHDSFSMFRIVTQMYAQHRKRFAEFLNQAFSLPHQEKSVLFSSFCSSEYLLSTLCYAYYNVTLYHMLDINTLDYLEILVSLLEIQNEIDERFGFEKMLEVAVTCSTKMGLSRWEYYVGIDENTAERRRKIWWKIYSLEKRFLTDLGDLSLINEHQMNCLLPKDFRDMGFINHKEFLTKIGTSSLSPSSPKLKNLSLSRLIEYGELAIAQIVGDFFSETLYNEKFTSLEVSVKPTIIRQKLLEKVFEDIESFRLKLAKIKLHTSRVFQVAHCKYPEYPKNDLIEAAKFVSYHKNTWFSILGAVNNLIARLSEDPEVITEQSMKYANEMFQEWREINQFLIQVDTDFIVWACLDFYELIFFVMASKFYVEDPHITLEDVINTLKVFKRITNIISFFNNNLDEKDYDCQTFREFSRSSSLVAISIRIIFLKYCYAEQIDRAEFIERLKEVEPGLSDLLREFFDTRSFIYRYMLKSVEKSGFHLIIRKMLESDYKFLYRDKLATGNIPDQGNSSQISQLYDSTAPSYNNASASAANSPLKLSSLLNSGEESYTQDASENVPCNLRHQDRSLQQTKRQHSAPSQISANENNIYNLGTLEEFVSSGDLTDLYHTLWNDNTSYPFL
Method: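 Universal 'all 10-mer' protein binding microarrays (Agilent AMADID 015681) probed with GST-tagged S. cerevisiae TFs (full-length or DBD) made by in vitro transcription/translation (PURExpress), about 100-200 nM. Bound TF was detected with fluorescent anti-GST. Each ungapped 8-mer (which stands for itself and its reverse complement) is scored by the PBM enrichment score (E-score), a modified Wilcoxon-Mann-Whitney statistic from -0.5 to +0.5, computed with the Universal PBM Analysis Suite. Scale: above 0.35 generally sequence-specific binding.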

Row | Sequence | PBM E-score
1 | ATGAAGTA | -0.039
2 | AGTTCAGC | -0.102
3 | CGATTGGA | -0.0441
4 | GTCGTCAA | -0.11
5 | GAATATAC | 0.13
6 | AGCGCTTG | 0.0633
7 | GTGGTAAC | 0.0698
8 | CGTCAAAA | 0.0576
9 | ATATGGAA | 0.138
10 | CATAGTCG | -0.0764
11 | CTGGTAGC | -0.0482
12 | CGTATTGA | -0.225
13 | AAGAATGC | 0.08
14 | ACCCTCCG | 0.12
15 | ACCGGACG | 0.311
16 | AACAGTGC | -0.0314
17 | CTTAATAA | 0.0619
18 | GAGACAAA | -0.187
19 | CACGAGTG | -0.0888
20 | GAAATAAC | 0.0825
21 | GGCGGTGA | -0.0177
22 | ACCTTTAC | 0.0485
23 | CGCGCCCA | 0.147
24 | TAACTTAA | 0.0276
25 | TATCAACA | -0.00649

Row | Sequence | PBM E-score
26 | ACGGCTAA | 0.125
27 | GCAGTCGA | 0.0159
28 | AGAGTGTC | 0.168
29 | ATATGCAT | -0.105
30 | CAGGTCCC | 0.0276
31 | AGCACATG | 0.0598
32 | GTATAGTA | 0.142
33 | CTCAAAGA | -0.226
34 | ACAGAAAG | -0.154
35 | GACTTATA | 0.0712
36 | GCATTGTA | 0.0272
37 | ATCTCGGA | 0.376
38 | AGTGTCGA | 0.0406
39 | CAATTGTC | -0.00242
40 | ACACTACG | 0.00776
41 | ACGTGGCA | -0.136
42 | CCGCCTCG | 0.0879
43 | AGGTTGTA | -0.114
44 | ACCCACGG | 0.267
45 | CGGGCTTC | 0.3
46 | ACAGGAAC | -0.0901
47 | TTCATAAA | -0.0336
48 | GGCGACGA | -0.137
49 | AAATGCGA | 0.174
50 | CAACAGTG | 0.0756

Row | Sequence | PBM E-score
51 | ACACCCCA | -0.0911
52 | ACTATGAG | -0.0997
53 | CGATTGAG | -0.0506
54 | GAATTATA | 0.0563
55 | CTACTACA | -0.00513
56 | ACGACTAC | -0.238
57 | GCTGTGAC | -0.158
58 | TCTGTTCA | -0.0161
59 | CTATAGGA | -0.177
60 | ATCCTCCA | -0.24
61 | CGACGACA | -0.118
62 | AGGAGTCA | -0.224
63 | ACCACGGC | 0.135
64 | CGTTCGAG | -0.0996
65 | AATGTCGA | -0.0106
66 | GGAAGAAC | 0.268
67 | GCGACCTA | 0.0108
68 | AGGACAAC | -0.0725
69 | CCTAAGCG | -0.246
70 | GCTGGTGA | 0.132
71 | GCAATACC | -0.0416
72 | GGAAAGAC | 0.19
73 | AGTCCAAG | -0.236
74 | TCTATTAA | -0.0129
75 | ATAAAAGG | -0.105

Row | Sequence | PBM E-score
76 | GAAATTTA | -0.136
77 | TAGCAGCA | -0.0766
78 | CCGACGCG | 0.332
79 | ACATGCTC | -0.00156
80 | TAATGGGA | -0.229
81 | ATATAAGC | -0.112
82 | CCTCCAAC | -0.0891
83 | ACGATATA | -0.189
84 | CACAGAAG | -0.109
85 | TCATCCGA | 0.29
86 | CACGAAAC | 0.0293
87 | GGCAAAAC | -0.0978
88 | CCGTGCCA | 0.105
89 | AGACGAGC | -0.303
90 | GCCTCCAA | -0.111
91 | GCCGGAGA | 0.244
92 | CTGCGCTA | -0.216
93 | CCATGACG | -0.0408
94 | ACCGCTTG | 0.067
95 | CAACGGGA | 0.261
96 | CGACATCC | 0.168
97 | AGATTTCC | 0.254
98 | AAGGCAAA | -0.0388
99 | ACGTTCTA | -0.0866
100 | CTGGTCTA | -0.254

Row | Sequence | PBM E-score
101 | GCCGACTA | 0.106
102 | AGTAGAAT | -0.0759
103 | CCGCATCG | 0.125
104 | TACGAGAA | -0.0853
105 | TCGCGAAA | 0.131
106 | TGAAATAA | -0.122
107 | CTAAAATC | -0.144
108 | GCTTTTAA | -0.179
109 | AACAGGAG | -0.159
110 | CGCGTGAC | 0.0246
111 | GTGGTACA | -0.188
112 | ACTAATCT | -0.0786
113 | AGGCTGGA | -0.262
114 | CATCCGCC | 0.345
115 | ACACGATC | -0.012
116 | CCGTCATC | 0.0897
117 | ATGATTCA | -0.137
118 | AGATTAGA | -0.255
119 | AAGTTCGT | -0.177
120 | GAGCTGCA | 0.00332
121 | ATGACCTA | -0.152
122 | CGCGCCCC | 0.236
123 | GAATACCC | 0.272
124 | CTTTATAC | 0.0268
125 | ACAAGTAA | -0.212

Row | Sequence | PBM E-score
126 | CGCCAGAC | 0.00951
127 | CAGACTCC | -0.146
128 | GTGAGAGA | -0.0904
129 | ACGTGACC | -0.0751
130 | ACCCTGAG | -0.126
131 | ATAACTAG | -0.01
132 | GACGCACA | 0.0366
133 | CTATGATC | -0.0603
134 | ACACCTCA | -0.187
135 | ACCGGCTC | 0.122
136 | ACTCTCGG | 0.238
137 | TCCGAAAA | 0.248
138 | GAATCGGC | 0.278
139 | CAAAGACC | -0.129
140 | CACCCATA | -0.239
141 | GATGGACA | -0.0186
142 | CCAGGTTA | -0.0429
143 | GTTCAAAA | -0.0918
144 | CGATACTA | 0.13
145 | AGCTTCGG | 0.162
146 | ATGATTGC | 0.112
147 | CACTATCG | -0.02
148 | TGATGGCA | -0.149
149 | CTCCGCAA | 0.14
150 | AGAAGATA | 0.0757

Row | Sequence | PBM E-score
151 | CGTTTATA | 0.0583
152 | CCATTAAA | 0.111
153 | CACTGGCC | -0.0792
154 | CCTCGAGG | 0.0706
155 | CTTCCGGC | 0.398
156 | GATAAGCA | -0.00222
157 | ACGCAGCA | -0.102
158 | AGGCACAC | -0.133
159 | CATCTGAG | -0.0983
160 | AGGGGTGC | -0.0873
161 | CACCCGGC | 0.234
162 | GTCCGGAC | 0.481
163 | CTCGCCAG | -0.0847
164 | GTTCCAAC | 0.103
165 | ACTCGCTG | 0.0455
166 | ACCTCAGG | -0.176
167 | ACCAATCG | 0.0772
168 | AGAATGAC | -0.125
169 | CAGAGGCG | -0.154
170 | AAGTGAAT | 0.135
171 | CAGTCTTC | -0.147
172 | TAGTTACA | -0.175
173 | GCGGACAA | 0.305
174 | AAGAGTTG | -0.0207
175 | AGTATGCA | -0.0811

Row | Sequence | PBM E-score
176 | CACTCGAA | -0.181
177 | CTCTACCA | -0.05
178 | AGTAGTGA | -0.0139
179 | AGAGGGAT | -0.304
180 | AGGGAGGG | -0.0143
181 | GGCTATCA | -0.0816
182 | CTCTCGAA | -0.197
183 | GTGAACTA | -0.0747
184 | CGGAAGAG | 0.365
185 | GGATATGA | 0.148
186 | ACAAACTC | 0.0698
187 | AAAAATAC | 0.00079
188 | ACCTACGG | -0.0477
189 | CGTATACG | 0.0176
190 | AACTAGAC | -0.106
191 | AGCTCGAG | -9e-05
192 | GAATTTCC | 0.268
193 | ATCAGGCC | -0.0165
194 | GAGCGCAC | 0.153
195 | GTCATATA | -0.0478
196 | AAGTCGGA | 0.242
197 | AATCAGAT | -0.193
198 | TGCCGCCA | 0.188
199 | GAAGGAAC | 0.0934
200 | GTGCAAGA | 0.00884

Row | Sequence | PBM E-score
201 | ACTCACAT | -0.188
202 | ATTATTCC | 0.271
203 | ACCGTTCA | 0.00427
204 | ACGCAGAC | -0.0557
205 | ATGGGTGG | -0.013
206 | ATGTGACG | -0.142
207 | GAAAGTGC | -0.118
208 | CTTTAAGA | 0.0484
209 | GAGCGACA | -0.0938
210 | GCTGAGCA | -0.0735
211 | GCCCGCCC | 0.181
212 | GTTAACCA | 0.0181
213 | CACAGTAA | 0.039
214 | CGGTATGC | -0.00571
215 | ACGGCATG | 0.0911
216 | CACCACGA | -0.0287
217 | AGACACAG | -0.0456
218 | CAGTATGA | -0.149
219 | AAAATAAT | 0.0224
